# Laboratory results reported in patent publication US7619094B2, “Ketoamides with cyclic P4's as inhibitors of NS3 serine protease of hepatitis C virus” (Schering Corporation, priority 2004, dated 2009).
# Target: Recombinant heterodimeric HCV NS3/NS4A protease (strain 1a) (Hepatitis C virus genotype 1a, UniProt P27958)
# Assay: HCV continuous assay (spectrophotometric HCV NS3/NS4A serine protease inhibition assay)
# Format: biochemical, HCV (strain 1a)
# Details: Table 1; ranges of Ki* values in HCV continuous assay
row,SMILES,Ki
1,CC(C)(C)[C@H](NC(=O)N[C@H](CN1CCNS1(=O)=O)C(C)(C)C)C(=O)N1C[C@H]2[C@@H]([C@H]1C(=O)NC(CC1CCC1)C(=O)C(N)=O)C2(C)C (some centres unmarked) [Compound 5148],≤ 50 nM
2,C#CCC(NC(=O)[C@@H]1[C@@H]2[C@H](CN1C(=O)[C@@H](NC(=O)N[C@H](CN1CCCS1(=O)=O)C(C)(C)C)C(C)(C)C)C2(C)C)C(=O)C(=O)NCC=C (some centres unmarked) [Compound 5125],≤ 50 nM
3,C#CCCC(NC(=O)[C@@H]1[C@@H]2[C@H](CN1C(=O)[C@@H](NC(=O)N[C@H](CN1Cc3ccccc3S1(=O)=O)C(C)(C)C)C(C)(C)C)C2(C)C)C(=O)C(=O)NCC=C (some centres unmarked) [Compound 5170],≤ 50 nM
4,CNC(=O)C(=O)C(CC1CC1)NC(=O)[C@@H]1[C@@H]2[C@H](CN1C(=O)[C@@H](NC(=O)N[C@H](CN1CCN(C)S1(=O)=O)C(C)(C)C)C(C)(C)C)C2(C)C (some centres unmarked) [Compound 5167],≤ 50 nM
5,C#CCCC(NC(=O)[C@@H]1[C@@H]2[C@H](CN1C(=O)[C@@H](NC(=O)N[C@H](CN1Cc3ccccc3S1(=O)=O)C1CCCCC1)C(C)(C)C)C2(C)C)C(=O)C(=O)NCC=C (some centres unmarked) [Compound 5221],≤ 50 nM
6,CC(C)(C)[C@H](NC(=O)N[C@H](CN1CCCCS1(=O)=O)C(C)(C)C)C(=O)N1C[C@H]2[C@@H]([C@H]1C(=O)NC(CC1CCC1)C(=O)C(N)=O)C2(C)C (some centres unmarked) [Compound 5193],≤ 50 nM
7,C=CCNC(=O)C(=O)C(CCC)NC(=O)[C@@H]1[C@@H]2[C@H](CN1C(=O)[C@@H](NC(=O)N[C@H](CN1CCCN(C)S1(=O)=O)C(C)(C)C)C(C)(C)C)C2(C)C (some centres unmarked) [Compound 5126],≤ 50 nM
8,CC(C)(C)[C@H](NC(=O)N[C@H](CN1Cc2ccccc2S1(=O)=O)C(C)(C)C)C(=O)N1C[C@H]2[C@@H]([C@H]1C(=O)NC(CC1CCC1)C(=O)C(N)=O)C2(C)C (some centres unmarked) [Compound 5173],≤ 50 nM
9,CC(C)(C)[C@H](NC(=O)N[C@H](CN1C(=O)c2ccccc2S1(=O)=O)C(C)(C)C)C(=O)N1C[C@H]2[C@@H]([C@H]1C(=O)NC(CC1CCC1)C(=O)C(N)=O)C2(C)C (some centres unmarked) [Compound 5163],≤ 50 nM
10,C=CCNC(=O)C(=O)C(CC1CC1)NC(=O)[C@@H]1[C@@H]2[C@H](CN1C(=O)[C@@H](NC(=O)N[C@H](CN1CCN(C)S1(=O)=O)C(C)(C)C)C(C)(C)C)C2(C)C (some centres unmarked) [Compound 5158],≤ 50 nM
11,C=CCNC(=O)C(=O)C(CCCC)NC(=O)[C@@H]1[C@@H]2[C@H](CN1C(=O)[C@@H](NC(=O)N[C@H](CN1Cc3ccccc3S1(=O)=O)C(C)(C)C)C1CCCCC1)C2(C)C (some centres unmarked) [Compound 5248],≤ 50 nM
12,C#CCCC(NC(=O)[C@@H]1[C@@H]2[C@H](CN1C(=O)[C@@H](NC(=O)N[C@H](CN1CCCCS1(=O)=O)C(C)(C)C)C(C)(C)C)C2(C)C)C(=O)C(=O)NCC=C (some centres unmarked) [Compound 5195],≤ 50 nM
13,C=CCNC(=O)C(=O)C(CC1CC1)NC(=O)[C@@H]1[C@@H]2[C@H](CN1C(=O)[C@@H](NC(=O)N[C@H](CN1CCCCS1(=O)=O)C(C)(C)C)C(C)(C)C)C2(C)C (some centres unmarked) [Compound 5196],≤ 50 nM
14,C=CCNC(=O)C(=O)C(CCC)NC(=O)[C@@H]1[C@@H]2[C@H](CN1C(=O)[C@@H](NC(=O)N[C@H](CN1CCCN(C)S1(=O)=O)C(C)(C)C)C1CCCCC1)C2(C)C (some centres unmarked) [Compound 5241],≤ 50 nM
15,C=CCNC(=O)C(=O)C(CCC)NC(=O)[C@@H]1[C@@H]2[C@H](CN1C(=O)[C@@H](NC(=O)N[C@H](CN1Cc3ccccc3S1(=O)=O)C(C)(C)C)C(C)(C)C)C2(C)C (some centres unmarked) [Compound 5171],≤ 50 nM
16,CCCCC(NC(=O)[C@@H]1[C@@H]2[C@H](CN1C(=O)[C@@H](NC(=O)N[C@H](CN1Cc3ccccc3S1(=O)=O)C(C)(C)C)C(C)(C)C)C2(C)C)C(=O)C(N)=O (some centres unmarked) [Compound 5181],≤ 50 nM

# Same assay, conditions: Table 2; ranges of Ki* values in HCV continuous assay
row,SMILES,Ki
1,C=CCNC(=O)C(=O)C(CCC)NC(=O)[C@@H]1[C@@H]2[C@H](CN1C(=O)[C@@H](NC(=O)N[C@H](CN1CCCCC1=O)C(C)(C)C)C1Cc3ccccc3C1)C2(C)C (some centres unmarked) [Compound 5724],≤ 50 nM
2,C=CCNC(=O)C(=O)C(CCC)NC(=O)[C@@H]1[C@@H]2[C@H](CN1C(=O)[C@@H](NC(=O)N[C@H](CN1CCCNC1=O)C(C)(C)C)C(C)(C)C)C2(C)C (some centres unmarked) [Compound 5664],≤ 50 nM
3,C=CCNC(=O)C(=O)C(CCCC)NC(=O)[C@@H]1[C@@H]2[C@H](CN1C(=O)[C@@H](NC(=O)N[C@H](CN1C(=O)CCCC1=O)C(C)(C)C)C(C)(C)C)C2(Cl)Cl (some centres unmarked) [Compound 5752],≤ 50 nM
4,CC(C)(C)[C@H](NC(=O)N[C@H](CN1C(=O)c2ccncc2C1=O)C(C)(C)C)C(=O)N1C[C@H]2[C@@H]([C@H]1C(=O)NC(CC1CC1)C(=O)C(N)=O)C2(C)C (some centres unmarked) [Compound 5660],≤ 50 nM
5,C=CCNC(=O)C(=O)C(CCC)NC(=O)[C@@H]1[C@@H]2[C@H](CN1C(=O)[C@@H](NC(=O)N[C@H](CN1C(=O)c3cc[n+]([O-])cc3C1=O)C(C)(C)C)C(C)(C)C)C2(C)C (some centres unmarked) [Compound 5770],≤ 50 nM
6,C#CCCC(NC(=O)[C@@H]1[C@@H]2[C@H](CN1C(=O)[C@@H](NC(=O)N[C@H](CN1CCCCC1=O)C(C)(C)C)C1Cc3ccccc3C1)C2(C)C)C(=O)C(=O)NCC=C (some centres unmarked) [Compound 5787],≤ 50 nM
7,C=CCNC(=O)C(=O)C(CC1CC1)NC(=O)[C@@H]1[C@@H]2[C@H](CN1C(=O)[C@@H](NC(=O)N[C@H](CN1C(=O)CCCC1=O)C(C)(C)C)C1CCCCC1)C2(C)C (some centres unmarked) [Compound 5708],≤ 50 nM
8,C=CCNC(=O)C(=O)C(CC1CC1)NC(=O)[C@@H]1[C@@H]2[C@H](CN1C(=O)[C@@H](NC(=O)N[C@H](CN1C(=O)CC3(CCCC3)CC1=O)C(C)(C)C)C(C)(C)C)C2(C)C (some centres unmarked) [Compound 5796],≤ 50 nM
9,CCCCC(NC(=O)[C@@H]1[C@@H]2[C@H](CN1C(=O)[C@@H](NC(=O)N[C@H](CN1Cc3ccccc3C1=O)C(C)(C)C)C(C)(C)C)C2(C)C)C(=O)C(=O)NCC (some centres unmarked) [Compound 5746],> 50 nM
10,C=CCNC(=O)C(=O)C(CCCC)NC(=O)[C@@H]1[C@@H]2[C@H](CN1C(=O)[C@@H](NC(=O)N[C@H](CN1C(=O)c3cc[n+]([O-])cc3C1=O)C(C)(C)C)C(C)(C)C)C2(C)C (some centres unmarked) [Compound 5771],≤ 50 nM
11,C=CCNC(=O)C(=O)C(CCCC)NC(=O)[C@@H]1[C@@H]2[C@H](CN1C(=O)[C@@H](NC(=O)N(C)[C@H](CN1C(=O)CNC1=O)C(C)(C)C)C(C)(C)C)C2(C)C (some centres unmarked) [Compound 5813],≤ 50 nM
12,C=CCNC(=O)C(=O)C(CCC)NC(=O)[C@@H]1[C@@H]2[C@H](CN1C(=O)[C@@H](NC(=O)N[C@H](CN1C(=O)CC(C)(C)CC1=O)C(C)(C)C)C(C)(C)C)C2(C)C (some centres unmarked) [Compound 5757],≤ 50 nM
13,C=CCNC(=O)C(=O)C(CCC)NC(=O)[C@@H]1[C@@H]2[C@H](CN1C(=O)[C@@H](NC(=O)N[C@H](CN1C(=O)CNC1=O)C(C)(C)C)C1CCCCC1)C2(C)C (some centres unmarked) [Compound 5815],≤ 50 nM
14,CCCCC(NC(=O)[C@@H]1[C@@H]2[C@H](CN1C(=O)[C@@H](NC(=O)N[C@H](CN1CCCCC1=O)C(C)(C)C)C1CCCCC1)C2(C)C)C(=O)C(=O)NCC (some centres unmarked) [Compound 5719],≤ 50 nM
15,CC(C)[C@@H](CN1CCOC1=O)NC(=O)N[C@H](C(=O)N1C[C@H]2[C@@H]([C@H]1C(=O)NC(CC1CCC1)C(=O)C(N)=O)C2(C)C)C(C)(C)C (some centres unmarked) [Compound 5612],≤ 50 nM
16,C=CCNC(=O)C(=O)C(CC1CC1)NC(=O)[C@@H]1[C@@H]2[C@H](CN1C(=O)[C@@H](NC(=O)N[C@H](Cn1ccccc1=O)C(C)(C)C)C(C)(C)C)C2(C)C (some centres unmarked) [Compound 5655],≤ 50 nM
17,C=CCNC(=O)C(=O)C(CC1CCC1)NC(=O)[C@@H]1[C@@H]2[C@H](CN1C(=O)[C@@H](NC(=O)N[C@H](CN1CCCCC1=O)C(C)C)C(C)(C)C)C2(C)C (some centres unmarked) [Compound 5614],≤ 50 nM
18,C=CCNC(=O)C(=O)C(CC1CC1)NC(=O)[C@@H]1[C@@H]2[C@H](CN1C(=O)[C@@H](NC(=O)N[C@H](CN1C(=O)c3cc[n+]([O-])cc3C1=O)C(C)(C)C)C(C)(C)C)C2(C)C (some centres unmarked) [Compound 5772],≤ 50 nM
19,CN1CCCN(C[C@@H](NC(=O)N[C@H](C(=O)N2C[C@H]3[C@@H]([C@H]2C(=O)NC(CC2CC2)C(=O)C(N)=O)C3(C)C)C(C)(C)C)C(C)(C)C)C1=O (some centres unmarked) [Compound 5686],≤ 50 nM
20,CC(C)(C)[C@H](NC(=O)NC1(CN2C(=O)c3ccccc3C2=O)CCCCC1)C(=O)N1C[C@H]2[C@@H]([C@H]1C(=O)NC(CC1CCC1)C(=O)C(N)=O)C2(C)C (some centres unmarked) [Compound 5682],≤ 50 nM
21,CC(C)(C)[C@H](NC(=O)N[C@H](CN1C(=O)c2ccccc2C1=O)C(C)(C)C)C(=O)N1C[C@H]2[C@@H]([C@H]1C(=O)NC(CC1CC1)C(=O)C(N)=O)C2(C)C (some centres unmarked) [Compound 5618],≤ 50 nM
22,C=CCNC(=O)C(=O)C(CC1CC1)NC(=O)[C@@H]1[C@@H]2[C@H](CN1C(=O)[C@@H](NC(=O)N[C@H](CN1C(=O)CNC1=O)C(C)(C)C)C(C)(C)C)C2(C)C (some centres unmarked) [Compound 5814],≤ 50 nM
23,C#CCCC(NC(=O)[C@@H]1[C@@H]2[C@H](CN1C(=O)[C@@H](NC(=O)N[C@H](CN1CCCCC1=O)C(C)(C)C)C(C)(C)C)C2(C)C)C(=O)C(=O)NCC=C (some centres unmarked) [Compound 5654],≤ 50 nM
24,C=CCNC(=O)C(=O)C(CCCC)NC(=O)[C@@H]1[C@@H]2[C@H](CN1C(=O)[C@@H](NC(=O)N[C@H](CN1C(=O)c3ccccc3C1=O)C(C)(C)C)C(C)(C)C)C2(C)C (some centres unmarked) [Compound 5613],≤ 50 nM
25,C=CCNC(=O)C(=O)C(CC1CC1)NC(=O)[C@@H]1[C@@H]2[C@H](CN1C(=O)[C@@H](NC(=O)N[C@H](CN1C(=O)c3ccncc3C1=O)C(C)(C)C)C(C)(C)C)C2(C)C (some centres unmarked) [Compound 5658],≤ 50 nM
26,CCCC(NC(=O)[C@@H]1[C@@H]2[C@H](CN1C(=O)[C@@H](NC(=O)N[C@H](CN1C(=O)c3ccccc3C1=O)C(C)(C)C)C(C)(C)C)C2(C)C)C(=O)C(N)=O (some centres unmarked) [Compound 5626],≤ 50 nM
27,CCCCC(NC(=O)[C@@H]1[C@@H]2[C@H](CN1C(=O)[C@@H](NC(=O)N[C@H](CN1CCCCC1=O)C(C)(C)C)C1(C)CCCCC1)C2(C)C)C(=O)C(=O)NCC (some centres unmarked) [Compound 5790],≤ 50 nM
28,C=CCNC(=O)C(=O)C(CCC(F)(F)F)NC(=O)[C@@H]1[C@@H]2[C@H](CN1C(=O)[C@@H](NC(=O)N[C@H](CN1Cc3ccccc3C1=O)C(C)(C)C)C(C)(C)C)C2(C)C (some centres unmarked) [Compound 5747],≤ 50 nM
29,C=CCNC(=O)C(=O)C(CCCC)NC(=O)[C@@H]1[C@@H]2[C@H](CN1C(=O)[C@@H](NC(=O)N[C@H](CN1CCCCC1=O)C(C)(C)C)C1CCCCC1)C2(C)C (some centres unmarked) [Compound 5716],≤ 50 nM

# Same assay, conditions: Table 4; Ki* values
row,SMILES,Ki
1,C=CCNC(=O)C(=O)C(CCC)NC(=O)[C@@H]1[C@@H]2[C@H](CN1C(=O)[C@@H](NC(=O)N[C@H](CN1CCCCC1=O)C(C)(C)C)C1Cc3ccccc3C1)C2(C)C (some centres unmarked) [Compound 5724],19 nM
2,C=CCNC(=O)C(=O)C(CC1CC1)NC(=O)[C@@H]1[C@@H]2[C@H](CN1C(=O)[C@@H](NC(=O)N[C@H](CN1C(=O)CC3(CCCC3)CC1=O)C(C)(C)C)C(C)(C)C)C2(C)C (some centres unmarked) [Compound 5796],3.2 nM
